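Protocol summary: plate cells (96-well), add compound at 5 concentrations, incubate 48 h, interpolate endpoints linearly. Abbreviation: GI50, concentration required for 50% inhibition of growth.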 The source made the active and inactive calls. No stated cut-off is given here; in the data, active = GI50 up to about 1.1 µM and inactive = higher.
tested on: NCI-H322M; assay: NCI anticancer screen, dose series, 48 h

SMILES	GI50
CC(=O)Nc1ccc(/C=C/C(=O)N2CC(CCl)c3c2cc(N)c2ccccc32)cc1 (configuration not stated)	active: < 0.005 µM
CCOC(=O)C(NS(=O)(=O)c1ccccc1)(C(F)(F)F)P(=O)(OCC(C)C)OCC(C)C (configuration not stated)	inactive: > 100 µM
CC(C)CNCCc1ccccn1	inactive: > 100 µM
CCCCN1CSC(=S)N(Cc2ccccc2)C1	inactive: > 100 µM
N#Cc1c(N2CCN(c3ccc([N+](=O)[O-])cc3)CC2)[n+]([O-])c2ccc(Cl)cc2[n+]1[O-]	inactive: 11.7 µM
O=C1Oc2ccccc2N/C1=C/C(=O)c1ccc(Cl)cc1	inactive: > 100 µM
O=C(O)C(CCc1ccccn1)c1ccccc1 (configuration not stated)	inactive: > 100 µM
CCOP(=O)(CCC(O)CNc1nc(N)nc(Cl)c1/N=N/c1ccc(Cl)cc1)OCC (configuration not stated)	inactive: 15 µM
COC(=O)C(Cc1c[nH]c2ccccc12)NP(=O)(O)OCC1OC(n2ccc(N)nc2=O)C(O)C1O (configuration not stated)	inactive: > 100 µM
Cc1ccc(/C=C2\Cc3c(C)cc(C)cc3C2=O)c(C(=O)O)c1	inactive: 50.2 µM
CN1CCC23c4ccccc4NC1C21CCN(C)C3Nc2ccccc21	inactive: > 185 µM
C#CCNC(Cc1c[nH]cn1)C(=O)O (configuration not stated)	inactive: > 100 µM
O=c1[nH]nc(Cc2ccc(Cl)cc2)n1CCO	inactive: > 100 µM
N#C/C(=C1\N=C(c2ccccc2O)Oc2ccccc21)c1ccc([N+](=O)[O-])cc1	inactive: > 100 µM
C/C(=N\Nc1nnc(S)n1N)c1c(O)cc(C)oc1=O	inactive: > 100 µM
CN(C)CC(CO)(CN(C)C)CN(C)C	inactive: > 100 µM
O=c1[nH]cnc2c(COCCCO)c[nH]c12	inactive: > 100 µM
CCCn1c(C23CC4CC(CC(C4)C2)C3)nc2ccc(Cl)cc2c1=O	inactive: 33.1 µM
COc1ccc2c(c1)CCC(CN1CCN(CCOC(c3ccccc3)c3ccccc3)CC1)C2O (configuration not stated)	inactive: 15.8 µM
CCN1C(=S)n2cccc2C1CC(=O)c1ccc(Cl)cc1 (configuration not stated)	inactive: > 100 µM
O=C(/C=C/c1cccc2ccccc12)c1ccccc1Cl	inactive: 17.1 µM
CCOC(=O)C1(C(=O)OCC)CCCN1C(=O)[C@H](CNC(=O)OC(C)(C)C)NC(=O)OCc1ccccc1	inactive: > 100 µM
COc1ccc(-n2sc3ncc(-c4ccccc4)cc3c2=O)cc1	inactive: > 100 µM

SMILES	GI50
CC(=O)CCCCO	inactive: > 100 µM
Nc1nc(=O)c(/N=N/c2ccc([As](=O)(O)O)cc2)c(N)[nH]1	inactive: > 100 µM
O=c1[nH]c(-c2ccc([N+](=O)[O-])cc2)nc2ccc(Cl)cc12	inactive: 97.3 µM
CN(C)/N=C1\CC(c2ccccc2)C(C#N)(C#N)C1(C#N)C#N (configuration not stated)	inactive: 23.5 µM
C=CCc1cccc2cc(C(=O)Nc3ccc(C)cc3)c(=N)oc12	inactive: > 100 µM
N#Cc1c(-c2ccc(Cl)cc2)cc(-c2nc3ccccc3[nH]2)nc1N	inactive: 15.1 µM
C=CCNC(=S)N/N=C1\C(=O)N(CN2CCOCC2)c2ccc([N+](=O)[O-])cc21	inactive: 28.2 µM
CCOC(=O)C1C(O)CC2c3ccccc3-c3ccccc3C21 (configuration not stated)	inactive: 32.6 µM
CC1CCc2c(sc3ncnc(N/N=C/c4ccc(Cl)cc4)c23)C1 (configuration not stated)	inactive: 39.4 µM
Cc1cc(Cl)ccc1N1C(=O)C(=O)C(c2nc3ccccc3o2)C(=O)C1=O	inactive: > 100 µM
C/C(=N\NC(=O)c1ccncc1)c1cccc(C(F)(F)F)c1	inactive: > 10 µM
CSc1nc2c(ncn2C2OC(CO)C(O)C(O)C2O)c(=O)n1C (configuration not stated)	inactive: > 100 µM
O=c1c2cccc3cccc(c4n1CCN=4)c32	inactive: 91 µM
C/C=C1\CCC2c3[nH]c4ccccc4c3CCN2C1 (configuration not stated)	inactive: > 100 µM
COc1ccc(/C=C/c2cc(OC)c(OC)c(OC)c2)cc1OC	inactive: 37.8 µM
CC(=O)OC1=C2CC3(C)OC(=O)CC(C)(C)C3=CC=C2C=C(C(C)C)C1=O (configuration not stated)	inactive: 1.71 µM
N#Cc1c(O)c(/N=N/c2ccc(Cl)cc2)c(=O)n2c1[nH]c1ccccc12	inactive: 59.3 µM
CSc1nc2c(c(O)c(C)c(=O)n2C2OCC(OC(C)=O)C(OC(C)=O)C2OC(C)=O)c(=O)n1C (configuration not stated)	inactive: > 100 µM
CC(C)(C)c1cc(C(=O)/C=C/c2ccc(O)c(O)c2O)cc(C(C)(C)C)c1O	inactive: 3.49 µM
CC1=C(C(=O)Nc2ccccc2)C(c2ccccc2Cl)C(C(=O)Nc2ccccc2)=C(C)N1	inactive: 56.1 µM
O=c1[nH]c(-c2ccccc2)nc2cc([N+](=O)[O-])c(/C(Cl)=C/c3ccccc3)cc12	inactive: 49.5 µM
O=CN/C=C\c1cc(O)ccc1O	inactive: > 100 µM
CCCCN(CCCC)c1c([N+](=O)[O-])c(=O)nc2ccccn12	inactive: 23.1 µM

SMILES	GI50
O=[N+]([O-])c1ccccc1S(=O)(=O)c1cccc2c1NCCC2	inactive: 42.8 µM
CC(=O)O[C@H]1[C@@H]2OC(=O)[C@@](O)(CC3CCCO3)[C@@H]2CC(=O)[C@](C)(O)CC/C=C(\C)CCC[C@@H]1C (some centres not stated)	inactive: > 100 µM
COc1ccc(N2C(=O)C3c4[nH]c5ccc(C)cc5c4C4CCC(c5ccccc5)CC4C3C2=O)cc1 (configuration not stated)	inactive: > 100 µM
Oc1cccc2c(Cl)ccnc12	inactive: 19.8 µM
COc1ccc(OC)c(C(=O)c2cccc(C(=O)c3cc(OC)ccc3OC)n2)c1	inactive: > 100 µM
COC(OC)[C@@H]1OC[C@@H](O)[C@@H]1n1cnc2c(N)ncnc21	inactive: > 100 µM
COc1ccc(/C=c2\sc3nnc(CCC(=O)Nc4cccc(C(F)(F)F)c4)n3c2=O)cc1	inactive: > 100 µM
CCCC1(N)CC(OC)OC(C)C1O (configuration not stated)	inactive: > 100 µM
Clc1ccc(C2C3COc4ccccc4C3=NN2c2ccccc2)cc1 (configuration not stated)	inactive: > 100 µM
COC(=O)C1=C(O)c2cc(-c3ccccc3)c(-c3ccccc3)c(C#N)c2NC(=O)C1	inactive: > 100 µM
O=c1n(CC2CS2)c2ccccc2n1CC1CS1 (configuration not stated)	inactive: > 100 µM
COc1ccc(Nc2nc(N)c(C(=O)c3c[nH]c4ccccc34)s2)cc1	inactive: 1.91 µM
Sc1nn2c(COc3cc(Cl)c(OCc4nnc5sc(S)nn45)cc3Cl)nnc2s1	inactive: > 100 µM
COc1cc2c(cc1OC)C1(c3ccccc3)CN(C2)Cc2cc(OC)c(OC)cc21	inactive: 50.2 µM
CCOC(=O)C(Cl)(NC(=O)OCc1ccccc1)C(F)(F)F (configuration not stated)	inactive: > 100 µM
C/C(=C/c1c(C)[nH]c(=O)[nH]c1=O)C(=O)O	inactive: > 1370 µM
O=c1cc(-c2ccccc2)oc2c1ccc1nc3ccccc3c(O)c12	inactive: 42 µM
C/C(=N\Nc1nc2ccccc2[nH]1)c1cccc[n+]1[O-]	inactive: 44.1 µM
CCC(C)C1=C(O)[N+]2([O-])Oc3ccc(-c4c(O)c(O)c(-c5ccc(O)cc5)c(OC(C)=O)c4OC(C)=O)cc3OC2(C(C)CC)C(=O)N1O (configuration not stated)	inactive: > 50 µM
O=C1NC2CCC(C2)C1c1ccccc1 (configuration not stated)	inactive: > 100 µM
Cc1cc(=O)n2nc(CCl)sc2n1	inactive: 17.1 µM
COc1cccc(C2SC(=N)Nc3c2c(C)nn3C(=O)Cc2ccccc2)c1 (configuration not stated)	inactive: > 100 µM
NCCSc1nc2ccccc2s1	inactive: 43.3 µM

SMILES	GI50
Cc1ccc2nc3c(C)c(Cl)c(=O)cc-3sc2c1	inactive: 36.4 µM
CC(C)(C)[Si](C)(C)OCC1OC(n2cnc3c(NC(=O)c4ccccc4)ncnc32)CC1O (configuration not stated)	inactive: 47.1 µM
CN1C/C(=C\c2ccccc2[N+](=O)[O-])C(=O)/C(=C/c2ccccc2[N+](=O)[O-])C1	inactive: 2 µM
O=S(=O)(Cc1nc2ccccc2s1)c1nc2ccccc2s1	inactive: 17.3 µM
COc1ccc2nc(C(=O)c3ccccc3)c(C)cc2c1	inactive: 24.6 µM
CN(NC(=O)c1cccs1)C1=NCCCCN1	inactive: > 100 µM
Cc1c(N)nc(C2CC(=O)N2CC(N)C(N)=O)nc1C(=O)NC(C(=O)NC(C)C(O)C(C)C(=O)NC(C(=O)NCCc1nc(-c2nc(C(=O)NCCNCC(C)O)cs2)cs1)C(C)O)C(OC1OC(CO)C(O)C(O)C1OC1OC(CO)C(O)C(OC(N)=O)C1O)c1c[nH]cn1 (configuration not stated)	inactive: 66.7 µM
CCOC(=O)C(C(N)=O)C1=Nc2cc([N+](=O)[O-])ccc2N/C1=C\C(=O)c1ccc(C)cc1 (configuration not stated)	inactive: 47.9 µM
COc1ccc(/C=C2\N=C3Sc4c([nH]cnc4=O)N3C2=O)cc1	inactive: > 100 µM
Cc1ccc(NC(=O)/C(CC(=O)c2c[n+]([O-])c3ccccc3[n+]2[O-])=N\NC(=O)C[n+]2ccccc2)cc1	inactive: > 100 µM
Cc1cc(C)nc(NS(=O)(=O)c2ccc(Nc3c4ccccc4nc4c(C(=O)NCCN(C)C)cccc34)cc2)n1	inactive: 4.27 µM
O=C1C(Br)=CC2(C=C1Br)CCNC1=C2C(=O)c2[nH]cnc2C1=O	inactive: 16.3 µM
CC[C@]12C=CCN3CC[C@@]4(c5ccc(OC)cc5N(C)[C@H]4[C@@](O)(C(=O)OC)[C@@H]1OC(C)=O)[C@@H]32	inactive: > 200 µM
COc1c2c(cc3c1OCO3)C13C=CC(OC)CC1N(CC3)C2.[O-][Cl+3]([O-])([O-])O (configuration not stated)	inactive: > 100 µM
Nc1ccc2c(=S)c3ccccc3[nH]c2c1	inactive: 48.5 µM
c1ccc(Nc2nnc(CCCCCCCCc3nnc(Nc4ccccc4)o3)o2)cc1	inactive: > 100 µM
CC(=O)Nc1oc(C)nc1C#N	inactive: > 100 µM
N#CC(/C(CCCC(=O)Nc1cccc([N+](=O)[O-])c1)=N/NC(=O)c1cc2ccccc2cc1O)c1ccccc1 (configuration not stated)	inactive: 29.7 µM
O=C1C=CC(=O)[C@H]2C3C=CC(C4C3C3(Cl)C(Cl)=C(Cl)[C@]4(Cl)C3(Cl)Cl)[C@@H]12 (some centres not stated)	inactive: 14.1 µM
C=CC[C@]1(C2=NC(C)(C)CO2)c2ccccc2-c2ccccc2[C@H]1C(C)=O	inactive: 11.4 µM
CC1(C)[C@@H]2C[C@H]1C(Cc1ccc(C[C@H]3c4cc(-c5ccccn5)ncc4[C@H]4C[C@@H]3C4(C)C)cc1)c1cc(-c3ccccn3)ncc12 (some centres not stated)	inactive: 2.32 µM
COc1ccc2nc(NC(=O)C(=O)C(C(=O)c3ccccc3-c3ccccc3)C3OC(=O)c4ccccc43)sc2c1 (configuration not stated)	inactive: 19.5 µM
Cc1c(S(=O)(=O)N/C(=N\O)Nc2ccc(Cl)cc2)sc2ccc(Cl)cc12	inactive: 17.7 µM

From ChEMBL document CHEMBL1201862, “PubChem BioAssay data set” (2004)
